# About 110 (3.4%) of roughly 3,200 compounds showed an effect of 50% or more. Some of the results follow.
# Tested on: T1, V. cholerae SAD30
# T1 construct: SAD30
# Set-up: species or system S. aureus MSSA476 (TSB) or V. cholerae SAD30 (LB); 384-well bacterial growth screen at 25 uM, OD600 relative to DMSO control
# Conditions: relative growth, OD600, LB; 25 µM; inhibitor
row,Compound,% of control remaining
1,"N#CC(=Cc1ccc(C(F)(F)F)cc1)C(=O)Nc1ccccc1 [9-I04, 2-cyano-N-phenyl-3-[4-(trifluoromethyl)phenyl]prop-2-enamide]",86.4038%
2,"CC(Cl)C(=O)Nc1ccccc1OC(F)F (stereo not shown) [6-J08, 2-chloro-N-[2-(difluoromethoxy)phenyl]propanamide]",85.392%
3,"C=CC(=O)Nc1ccc(C)cc1S(=O)(=O)N1CCOCC1 [1-O13, N-[4-methyl-2-(morpholine-4-sulfonyl)phenyl]prop-2-enamide]",87.2945%
4,"CC(Cl)C(=O)Nc1ccc(Cl)c(S(=O)(=O)N(C)C)c1 (stereo not shown) [5-G21, 2-chloro-N-[4-chloro-3-(dimethylsulfamoyl)phenyl]propanamide]",96.6691%
5,"COc1ccc(CNC(=O)C(C)Cl)cc1OC (stereo not shown) [6-P10, 2-chloro-N-[(3,4-dimethoxyphenyl)methyl]propanamide]",100.104%
6,"COc1ccc(CN(C)C(=O)CCl)cc1 [6-M15, 2-chloro-N-[(4-methoxyphenyl)methyl]-N-methylacetamide]",90.0938%
7,"C=CC(=O)Nc1sc2c(c1C(=O)c1ccc(C)cc1)CCOC2 [1-J22, N-[3-(4-methylbenzoyl)-4H,5H,7H-thieno[2,3-c]pyran-2-yl]prop-2-enamide]",129.539%
8,"O=C(CCl)Nc1ccccc1C(=O)Nc1ccc(Cl)cc1 [4-G10, 2-(2-chloroacetamido)-N-(4-chlorophenyl)benzamide]",90.0582%
9,"Cc1cc(C(=O)CCl)c(C)n1Cc1cccs1 [10-D03, 2-chloro-1-{2,5-dimethyl-1-[(thiophen-2-yl)methyl]-1H-pyrrol-3-yl}ethan-1-one]",108.319%
10,"CN1C(=O)Cc2cc(C(=O)CCl)ccc21 [10-G07, 5-(2-chloroacetyl)-1-methyl-2,3-dihydro-1H-indol-2-one]",54.3931%
11,"N#CC(=Cc1ccc(Cl)cc1)C(=O)Nc1ccccn1 [9-H16, 3-(4-chlorophenyl)-2-cyano-N-(pyridin-2-yl)prop-2-enamide]",87.3555%
12,"C=CC(=O)NCc1nc(-c2ccccc2)oc1C [3-C05, N-[(5-methyl-2-phenyl-1,3-oxazol-4-yl)methyl]prop-2-enamide]",106.734%
13,"C=CC(=O)NCC(CC)n1nc(C)cc1C (stereo not shown) [1-K21, N-[2-(3,5-dimethyl-1H-pyrazol-1-yl)butyl]prop-2-enamide]",94.6188%
14,"Cc1nn(C)c(C)c1C=C(C#N)C(=O)Nc1ccccc1F [9-I07, 2-cyano-N-(2-fluorophenyl)-3-(1,3,5-trimethyl-1H-pyrazol-4-yl)prop-2-enamide]",88.3073%
15,"Cc1cc2ncn(CC(NC(=O)C(C)Cl)C3CC3)c2cc1C (stereo not shown) [7-J17, 2-chloro-N-[1-cyclopropyl-2-(5,6-dimethyl-1H-1,3-benzodiazol-1-yl)ethyl]propanamide]",56.1705%
16,"O=C(CCl)N(Cc1cnn(-c2ccccc2)c1)C1CC1 [6-L09, 2-chloro-N-cyclopropyl-N-[(1-phenyl-1H-pyrazol-4-yl)methyl]acetamide]",91.0039%
17,"Cc1ccc(NC(=O)CN2CCN(C(=O)CCl)CC2)cc1.Cl [4-D16, 2-[4-(2-chloroacetyl)piperazin-1-yl]-N-(4-methylphenyl)acetamide hydrochloride]",86.2627%
18,"CC(C)c1ccc(Cn2[nH]ccc2=NC(=O)CCl)cc1 [5-P12, 2-chloro-N-(2-{[4-(propan-2-yl)phenyl]methyl}-2,3-dihydro-1H-pyrazol-3-ylidene)acetamide]",102.385%
19,"C=CC(=O)NCc1ccc(C(=O)N2CCCCC(SC)C2)cc1 (stereo not shown) [2-B20, N-({4-[3-(methylsulfanyl)azepane-1-carbonyl]phenyl}methyl)prop-2-enamide]",94.519%
20,"CC(Cl)C(=O)NC1c2cc(F)ccc2CC1C (stereo not shown) [7-E16, 2-chloro-N-(6-fluoro-2-methyl-2,3-dihydro-1H-inden-1-yl)propanamide]",70.8409%
21,"CC(Cl)C(=O)NCCc1nc(C2CCCCC2)cs1 (stereo not shown) [7-F09, 2-chloro-N-[2-(4-cyclohexyl-1,3-thiazol-2-yl)ethyl]propanamide]",68.7263%
22,"Cc1ccc(C(=O)C(C)Cl)cc1C (stereo not shown) [10-B20, 2-chloro-1-(3,4-dimethylphenyl)propan-1-one]",99.2792%
23,"O=C(CCl)N(Cc1nc(C2CCCCCC2)no1)C1CC1 [7-B16, 2-chloro-N-[(3-cycloheptyl-1,2,4-oxadiazol-5-yl)methyl]-N-cyclopropylacetamide]",80.2247%
24,"COCC(C)n1c(C)cc(C=C(C#N)C(=O)NS(C)(=O)=O)c1C (stereo not shown) [8-B04, 2-cyano-N-methanesulfonyl-3-[1-(1-methoxypropan-2-yl)-2,5-dimethyl-1H-pyrrol-3-yl]prop-2-enamide]",81.6451%
25,"C=CC(=O)N(C)CCCn1c(=O)c(C)nc2ccccc21 [1-I08, N-methyl-N-[3-(3-methyl-2-oxo-1,2-dihydroquinoxalin-1-yl)propyl]prop-2-enamide]",88.1913%
26,"CC(Cl)C(=O)N1CCn2cccc2C1c1ccccc1 (stereo not shown) [7-E11, 2-chloro-1-{1-phenyl-1H,2H,3H,4H-pyrrolo[1,2-a]pyrazin-2-yl}propan-1-one]",77.8457%
27,"CN(C)c1ccc(C=C(C#N)C(=O)Nc2ccc3c(c2)OCCO3)cc1 [9-B21, 2-cyano-N-(2,3-dihydro-1,4-benzodioxin-6-yl)-3-[4-(dimethylamino)phenyl]prop-2-enamide]",90.7546%
28,"O=C(CCl)NCCc1nc2ccccc2s1 [6-K20, N-[2-(1,3-benzothiazol-2-yl)ethyl]-2-chloroacetamide]",97.3742%
